This passage reports T/C results from PubChem BioAssay AID330 (DTP/NCI, 2004).

For this assay, the system named is P388 leukemia ip, CD2F1 mice, survival T/C. Briefly: NCI In Vivo Anticancer Drug Screen. Data for tumor model P388 Leukemia (intraperitoneal) in CD2F1 (CDF1) mice. Conditions: endpoint: median survival time, higher = longer survival.
Setting [1] is: dose: 200.0 mg/kg/injection, schedule: Q04DX003 (ip), vehicle: saline with Tween-80.

Toxic doses and inconclusive results are not listed. Some entries of the source have several records that differ or are many. The list is limited to them. There may be further records. The values listed for one entry are repeats (runs, samples, wells, individuals or studies). A tag in brackets gives the origin of a value. A, B and so on number the origins entry by entry.

In the case of `CC(C)CCCCCCCCCCCCC(=O)NCC(=O)NC1C(C)OC(Nc2ncnc3nc[nH]c23)C(O)C1O` (centres undefined), where the note is “dose: 2.0 mg/kg/injection, schedule: Q01DX009 (ip), vehicle: other”, the T/C is 94 % of control and 157 % of control. `CCSc1nc2ccc(N=Cc3ccccc3O)cc2s1`: the T/C (dose: 50.0 mg/kg/injection, schedule: Q01DX009 (ip), vehicle: Klucel (hydroxypropylcellulose) (HPC)) is reported as 94 % of control, 102 % of control, 168 % of control. For the molecule `NC(Cc1ccccc1)C(=O)OCN1C(=O)C2C3C=CC(C2C1=O)C1C2C(=O)N(COC(=O)C(N)Cc4ccccc4)C(=O)C2C31` (centres undefined), the T/C (dose: 200.0 mg/kg/injection, schedule: Q01DX009 (ip), vehicle: water) is 105 % of control and 163 % of control. For the molecule `Cc1ccc(S(=O)(=O)N/N=C/C(Br)=C(/Br)C(=O)O)cc1`, the T/C reads like this: (dose: 100.0 mg/kg/injection, schedule: Q01DX009 (ip), vehicle: distilled water + Tween-80) 100 % of control and 192 % of control; (dose: 200.0 mg/kg/injection, schedule: Q01DX009 (ip), vehicle: distilled water + Tween-80) 90 % of control and 182 % of control.

Consider `COC(=O)CC1(O)C(=O)OCc2c1cc1n(c2=O)Cc2c-1nc1ccccc1c2OC` (centres undefined), for which the T/C (dose: 25.0 mg/kg/injection, schedule: Q01DX009 (ip), vehicle: saline) was 110 % of control and 167 % of control.

Turning to `COc1ccc(CC2C(=O)NC(C)C(=O)N(C)C3Cc4ccc(cc4)Oc4cc(ccc4O)CC(C(=O)NC(C)C(=O)NC(C)C(=O)N2C)N(C)C3=O)cc1` (centres undefined), the T/C (dose: 0.5 mg/kg/injection, schedule: Q01DX009 (ip), vehicle: saline with Tween-80) is 106 % of control and 156 % of control. With `C/C(=N\NC(=S)N1CC2CCC(CC2)C1)c1cccc(C)n1`, where the note is “dose: 25.0 mg/kg/injection, schedule: Q01DX005 (ip), vehicle: saline with Tween-80”, the T/C was 121 % of control and 151 % of control. Take `CC([NH-])CC(C)[NH-].O=[N+]([O-])O.O=[N+]([O-])O.[Pt+2]` (centres undefined): the T/C by setting is: (dose: 6.25 mg/kg/injection, schedule: Q04DX002 (ip), vehicle: saline) 120 % of control [sample A] and 160 % of control [sample B]; (dose: 12.5 mg/kg/injection, schedule: Q04DX002 (ip), vehicle: saline) 150 % of control [sample A] and 90 % of control [sample B] and 184 % of control [sample C]. Take `Cc1ccc2cc3c(ccc4ccccc43)c3c2c1CC3`: the T/C under setting [1] was 123 % of control and 163 % of control.

Regarding `CCOc1ccc(C(C)c2cc3c(cc2OC)OCO3)cc1` (centres undefined), the T/C (dose: 333.33 mg/kg/injection, schedule: Q01DX005 (ip), vehicle: distilled water + Tween-80) was 96 % of control and 196 % of control. For the molecule `CCOc1ccc(Br)cc1/C=N/NS(=O)(=O)c1ccc(C)cc1`, the T/C (dose: 400.0 mg/kg/injection, schedule: Q01DX009 (ip), vehicle: saline with Tween-80) is 100 % of control and 157 % of control.

As to `Nc1nc(=S)c2ncn(C3OC(COC(=O)c4ccc(Cl)cc4)C(OC(=O)c4ccc(Cl)cc4)C3OC(=O)c3ccc(Cl)cc3)c2[nH]1` (centres undefined), the T/C under setting [1] is 120 % of control and 154 % of control. For `CCCCCC(N)C(C)=O` (centres undefined), the T/C (dose: 100.0 mg/kg/injection, schedule: Q01DX009 (ip), vehicle: saline with Tween-80) is 92 % of control and 187 % of control.

Take `O=[N+]([O-])c1ccccc1C(Nc1nncs1)Nc1nncs1`: the T/C (dose: 200.0 mg/kg/injection, schedule: Q01DX005 (ip), vehicle: Klucel (hydroxypropylcellulose) (HPC)) was 102 % of control and 154 % of control. Take `CC1=CC(=O)[C@@H](O)[C@]2(C)[C@H]3[C@@H](O)[C@H](O)[C@@]4(C)OC[C@@]35[C@@H](C[C@@H]12)OC(=O)C[C@]54O`: where the note is “dose: 0.5 mg/kg/injection, schedule: Q01DX009 (ip), vehicle: saline”, the T/C was 119 % of control and 156 % of control. Turning to `COc1cccc2c1C(=O)c1c(O)c3c(c(O)c1C2=O)C[C@@](O)(/C(C)=N\NC(N)=O)C[C@@H]3OC1CC(N)C(O)C(C)O1` (some centres undefined), the T/C is 106 % of control and 181 % of control (dose: 6.25 mg/kg/injection, schedule: Q01DX009 (ip), vehicle: saline); 113 % of control and 160 % of control (dose: 12.5 mg/kg/injection, schedule: Q01DX009 (ip), vehicle: saline).
